Experimental data as given in US20200181257A1 (Chugai, published 2020).

Experiments:
Assay in all cases: SPR, antibody captured on Protein A
[1] = target: T1, human Fcγ receptor hFcgRIa (human, UniProt P12314 16-292, limits assumed)
T1 construct: Construct used in the SPR assay is not described; also called hFcγRIa; FcγI
Procedure: (§1) The CH2 domain, which was modified in this examination, is known to be involved in interaction with several human Fcγ receptors (hereinafter denoted as hFcgRs) which affect effector functions. Therefore, the binding of TS1 and TS19 prepared by using the H chain of anti-IL6R produced in Example 2 to hFcgRs was measured, according to the method described in Reference Example 3.
(§2) Interactions between antibodies and hFcgRs (hFcgRIa, hFcgRIIa(R), hFcgRIIa(H), hFcgRIIb, hFcgRIIIa(F), and hFcgRIIIa(V)) were analyzed using Biacore T100 (GE Healthcare). HBS-EP+(GE Healthcare) was used for the running buffer, and the measurement temperature was set at 25° C. Protein A (Invitrogen) was immobilized by the amino coupling method, and an antibody of interest was captured thereon. Then, hFcγR solutions diluted using the running buffer were injected to allow interaction with the captured antibody at a flow rate of 30 μL/min for five minutes for hFcγRIa, and at a flow rate of 5 μL/min for one minute for the other hFcγRs. […] Since the hFcγR binding level depends on the amount of captured antibodies, the FcgR-binding levels were corrected so that the capture level of each antibody would be 200 RU (resonance unit) for hFcgRIa and 1000 RU (resonance unit) for the other hFcgRs. The captured antibodies were washed by allowing 10 mM glycine-HCl (pH 1.5) to react for 30 seconds at a flow rate of 30 μL/min to recycle the chip for reuse.

[2] = target: T2, human Fcγ receptor hFcgRIIa (R) (human, UniProt P12318 36-217)
T2 construct: also called FcγRIIa (type R); FcγIIA
T2 chain: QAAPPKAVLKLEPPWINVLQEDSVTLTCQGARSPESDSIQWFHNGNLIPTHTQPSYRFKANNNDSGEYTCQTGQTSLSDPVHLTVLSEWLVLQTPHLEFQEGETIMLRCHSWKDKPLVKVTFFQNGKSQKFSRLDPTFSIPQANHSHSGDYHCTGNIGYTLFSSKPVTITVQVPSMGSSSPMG
Procedure: as §1, §2

[3] = target: T3, human Fcγ receptor hFcgRIIa (H) (human, UniProt P12318 36-217)
T3 construct: also called FcγRIIa (type H); FcγIIA
T3 sequence: T2 chain with R133H
Procedure: as §1, §2

[4] = target: T4, human Fcγ receptor hFcgRIIb (human, UniProt P31994 43-217, limits assumed)
T4 construct: Construct used in the SPR assay is not described; also called FcγRIIb; FcγIIB
T4 sequence: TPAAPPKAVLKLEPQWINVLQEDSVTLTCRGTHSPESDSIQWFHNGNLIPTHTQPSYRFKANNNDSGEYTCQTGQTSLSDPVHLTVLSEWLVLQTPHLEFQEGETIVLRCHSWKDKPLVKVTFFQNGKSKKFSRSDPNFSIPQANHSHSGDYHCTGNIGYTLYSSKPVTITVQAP
Procedure: as §1, §2

[5] = target: T5, human Fcγ receptor hFcgRIIIa (V) (human, UniProt P08637 part only)
T5 construct: also called FcγRIIIa allotype V158; FcγIIIA
Procedure: as §1, §2

[6] = target: T1, human Fcγ receptor hFcgRIa; remark: listed apart in the source
Procedure: (§3) Furthermore, binding ability to hFcgRs was measured by the method described in Reference Example 3.
as §2

[7] = target: T2, human Fcγ receptor hFcgRIIa (R)
Procedure: as §3, §2

[8] = target: T3, human Fcγ receptor hFcgRIIa (H); remark: listed apart in the source
Procedure: as §3, §2

[9] = target: T4, human Fcγ receptor hFcgRIIb; remark: listed apart in the source
Procedure: as §3, §2

[10] = target: T5, human Fcγ receptor hFcgRIIIa (V); remark: listed apart in the source
Procedure: as §3, §2

T1 sequence (P12314 16-292 limits assumed): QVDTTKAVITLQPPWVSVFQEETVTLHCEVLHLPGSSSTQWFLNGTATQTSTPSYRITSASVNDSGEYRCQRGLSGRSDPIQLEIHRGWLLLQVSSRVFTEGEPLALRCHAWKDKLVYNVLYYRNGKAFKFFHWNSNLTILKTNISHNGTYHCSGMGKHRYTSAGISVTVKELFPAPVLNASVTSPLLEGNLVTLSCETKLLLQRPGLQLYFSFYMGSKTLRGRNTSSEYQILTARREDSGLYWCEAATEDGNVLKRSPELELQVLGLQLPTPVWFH
T5 sequence (P08637 other isoform, or with tags, fused parts or gaps limits assumed): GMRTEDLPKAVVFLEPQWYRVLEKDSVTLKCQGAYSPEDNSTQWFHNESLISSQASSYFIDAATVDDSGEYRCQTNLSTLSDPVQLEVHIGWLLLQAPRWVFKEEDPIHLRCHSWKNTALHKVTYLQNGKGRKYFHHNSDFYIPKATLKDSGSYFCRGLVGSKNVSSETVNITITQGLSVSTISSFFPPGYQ

B1: TS12 (antibody)
heavy: QVQLQESGPGLVRPSQTLSLTCTVSGYSITSDHAWSWVRQPPGRGLEWIGYISYSGITTYNPSLKSRVTMLRDTSKNQFSLRLSSVTAADTAVYYCARSLARTTAMDYWGQGSLVTVSS[human IgG1 constant region with L234R L235R (EU numbers) not shown]
light: DIQMTQSPSSLSASVGDRVTITCRASQDISSYLNWYQQKPGKAPKLLIYYTSRLHSGVPSRFSGSGSGTDFTFTISSLQPEDIATYYCQQGNTLPYTFGQGTKVEIKRTVAAPSVFIFPPSDEQLKSGTASVVCLLNNFYPREAKVQWKVDNALQSGNSQESVTEQDSKDSTYSLSSTLTLSKADYEKHKVYACEVTHQGLSSPVTKSFNRGEC
notes: anti-IL6R IgG1, G1d with L234R/L235R (EU)
binding relative to G1 (=100) [1]: -1
binding relative to G1 (=100) [2]: 0.6
binding relative to G1 (=100) [3]: 0.9
binding relative to G1 (=100) [4]: 2.8
binding relative to G1 (=100) [5]: 1.1

B3: TS6 (antibody)
heavy: QVQLQESGPGLVRPSQTLSLTCTVSGYSITSDHAWSWVRQPPGRGLEWIGYISYSGITTYNPSLKSRVTMLRDTSKNQFSLRLSSVTAADTAVYYCARSLARTTAMDYWGQGSLVTVSS[human IgG1 constant region with K326S A330H (EU numbers) not shown]
light: B1 light
notes: anti-IL6R IgG1, G1d with K326S/A330H (EU); also called TS06
binding relative to G1 (=100) [1]: 101
binding relative to G1 (=100) [2]: 123
binding relative to G1 (=100) [3]: 120
binding relative to G1 (=100) [4]: 142
binding relative to G1 (=100) [5]: 90.6

B4: TS18 (antibody)
heavy: QVQLQESGPGLVRPSQTLSLTCTVSGYSITSDHAWSWVRQPPGRGLEWIGYISYSGITTYNPSLKSRVTMLRDTSKNQFSLRLSSVTAADTAVYYCARSLARTTAMDYWGQGSLVTVSS[human IgG1 constant region with S239K N325M (EU numbers) not shown]
light: B1 light
notes: anti-IL6R IgG1, G1d with S239K/N325M (EU)
binding relative to G1 (=100) [1]: 11.5
binding relative to G1 (=100) [3]: 2.3
binding relative to G1 (=100) [4]: 10.9
binding relative to G1 (=100) [5]: 1.8

B5: TS14 (antibody)
heavy: QVQLQESGPGLVRPSQTLSLTCTVSGYSITSDHAWSWVRQPPGRGLEWIGYISYSGITTYNPSLKSRVTMLRDTSKNQFSLRLSSVTAADTAVYYCARSLARTTAMDYWGQGSLVTVSS[human IgG1 constant region with H268M D270F (EU numbers) not shown]
light: B1 light
notes: anti-IL6R IgG1, G1d with H268M/D270F (EU)
binding relative to G1 (=100) [1]: 87.1
binding relative to G1 (=100) [2]: 3.4
binding relative to G1 (=100) [3]: 29.4
binding relative to G1 (=100) [5]: 10.1

B8: TS9 (antibody)
heavy: QVQLQESGPGLVRPSQTLSLTCTVSGYSITSDHAWSWVRQPPGRGLEWIGYISYSGITTYNPSLKSRVTMLRDTSKNQFSLRLSSVTAADTAVYYCARSLARTTAMDYWGQGSLVTVSS[human IgG1 constant region with L234K L235K (EU numbers) not shown]
light: B1 light
notes: anti-IL6R IgG1, G1d with L234K/L235K (EU); also called TS09
binding relative to G1 (=100) [2]: 1.3
binding relative to G1 (=100) [3]: 0.5
binding relative to G1 (=100) [4]: 1.4
binding relative to G1 (=100) [5]: 0.5

Next, values leading:

binding relative to G1 (=100) [6]: 99.2
binding relative to G1 (=100) [7]: 55.8
binding relative to G1 (=100) [8]: 27.4
binding relative to G1 (=100) [9]: 40.8
binding relative to G1 (=100) [10]: 58.9
B2: TS51 (antibody)
heavy: QVQLQESGPGLVRPSQTLSLTCTVSGYSITSDHAWSWVRQPPGRGLEWIGYISYSGITTYNPSLKSRVTMLRDTSKNQFSLRLSSVTAADTAVYYCARSLARTTAMDYWGQGSLVTVSS[human IgG1 constant region with S298G (EU numbers) not shown]
light: B1 light
notes: anti-IL6R IgG1, G1d with S298G (EU)

binding relative to G1 (=100) [6]: 99.6
binding relative to G1 (=100) [7]: 124
binding relative to G1 (=100) [8]: 127
binding relative to G1 (=100) [9]: 148
binding relative to G1 (=100) [10]: 96.9
B6: TS49 (antibody)
heavy: QVQLQESGPGLVRPSQTLSLTCTVSGYSITSDHAWSWVRQPPGRGLEWIGYISYSGITTYNPSLKSRVTMLRDTSKNQFSLRLSSVTAADTAVYYCARSLARTTAMDYWGQGSLVTVSS[human IgG1 constant region with T250W (EU numbers) not shown]
light: B1 light
notes: anti-IL6R IgG1, G1d with T250W (EU)

binding relative to G1 (=100) [6]: 67
binding relative to G1 (=100) [7]: 76.7
binding relative to G1 (=100) [8]: 79.2
binding relative to G1 (=100) [9]: 74.3
binding relative to G1 (=100) [10]: 69.1
B7: TS56 (antibody)
heavy: QVQLQESGPGLVRPSQTLSLTCTVSGYSITSDHAWSWVRQPPGRGLEWIGYISYSGITTYNPSLKSRVTMLRDTSKNQFSLRLSSVTAADTAVYYCARSLARTTAMDYWGQGSLVTVSS[human IgG1 constant region with L309D (EU numbers) not shown]
light: B1 light
notes: anti-IL6R IgG1, G1d with L309D (EU)

Changes are numbered by the printed parent chain. Numbers in names are those of the source. Where two headings read alike, the source gives them in different places. One block for each binder: values may come before it.
